{
  "source": "PubChem BioAssay AID485294",
  "about": "(National Center for Advancing Translational Sciences (NCATS), 2010)",
  "note": "About 150 (0.041%) of roughly 370,000 compounds were called active. Inconclusive results, whose numbers are uncertain, are shown with a selection of clear calls. Calls come from the whole dose curve; as a rule, active = well fitted inhibition curve with a large enough effect; inconclusive = small, poorly fitted or top-dose-only effect; inactive = flat fitted curve, though single readings scatter. Potencies of inconclusive entries are left out as doubtful fits. Potency is the fitted concentration of half-maximal effect; tags give direction and shape of the fitted curve.",
  "data": [
    {"target": "Beta-lactamase (Escherichia coli (strain K12)) (UniProt P00811)", "sequence (P00811 whole entry, looked up)": "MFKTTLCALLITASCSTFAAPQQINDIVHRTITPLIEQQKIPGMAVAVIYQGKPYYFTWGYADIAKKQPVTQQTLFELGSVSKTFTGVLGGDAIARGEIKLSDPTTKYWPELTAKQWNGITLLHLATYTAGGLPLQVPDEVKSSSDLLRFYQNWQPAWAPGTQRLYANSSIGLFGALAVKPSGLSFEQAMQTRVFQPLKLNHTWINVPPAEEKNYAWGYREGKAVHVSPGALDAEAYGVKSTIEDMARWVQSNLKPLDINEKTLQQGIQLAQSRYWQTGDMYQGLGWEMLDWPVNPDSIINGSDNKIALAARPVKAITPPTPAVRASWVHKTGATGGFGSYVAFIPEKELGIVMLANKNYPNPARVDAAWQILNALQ", "experiment": "qHTS Inhibitors of AmpC Beta-Lactamase (assay with detergent); note: nearly all actives have a fitted effect of over 25% in size;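 for activity change, negative = inhibition: 0% = no-compound wells and -100% = no-enzyme wells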", "conditions": "AmpC hydrolysis of nitrocefin, absorbance 480 nm, 0.01% Triton; activity change, negative = inhibition: at 114 µM (top of the series)", "how_it_was_run": "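20 mM phosphate pH 7.0 + 0.01% (detergent screen) or 0.0001% Triton X-100; 5.3 nM AmpC reagent; cpd preinc 15 min RT; nitrocefin (800 uM stock) to start; A480 q20 s × 4 min; Activity was normalised to no-enzyme and no-compound control wells.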", "values": [
      {"compound": "CCc1ccc(NC(=O)C(=O)NCCc2sc3nc(-c4ccc(OC)cc4)nn3c2C)cc1", "activity change, negative = inhibition": "inactive: 0.237%"},
      {"compound": "CCN(CC(=O)O)S(=O)(=O)c1cc(Cl)ccc1Cl", "Potency": "inconclusive [inhibitor, single point]"},
      {"compound": "O=C(CN1C(=O)C2CC=C(Cl)CC2C1=O)Nc1ccc(C(=O)O)cc1", "note": "(stereo not given)", "activity change, negative = inhibition": "inactive: 0.0765%"},
      {"compound": "O=C(CCC(=O)N1CCOCC1)NCCc1ccccc1", "activity change, negative = inhibition": "inactive: 2.97%"},
      {"compound": "COCCNS(=O)(=O)c1cccc2cccnc12", "Potency": "inconclusive [inhibitor, full curve, poor fit]"},
      {"compound": "CNc1nc(C)c(C(=O)OCc2ccccc2)s1", "Potency": "inconclusive [inhibitor, full curve]"},
      {"compound": "O=C(NNC(=S)NCc1ccccc1)c1ccc2c(c1)OCO2", "Potency": "inconclusive [inhibitor, full curve, poor fit]"},
      {"compound": "COC(=O)c1ccc(CNC(=O)CNc2cc(C(F)(F)F)ccc2N2CCOCC2)cc1", "activity change, negative = inhibition": "inactive: -9.82%"},
      {"compound": "COc1ccc(/C=N/NC(=O)c2nc(-c3ccccc3)n(-c3ccccc3)n2)c(O)c1", "Potency": "inconclusive [inhibitor, single point]"},
      {"compound": "Cc1ccc(S(=O)(=O)N2CCC3(CC2)OCCO3)cc1", "Potency": "inconclusive [inhibitor, full curve, poor fit]"},
      {"compound": "CC(C)(C)c1ccccc1NC(=O)c1cccnc1", "Potency": "inconclusive [inhibitor, full curve, poor fit]"},
      {"compound": "CC(=O)Nc1ccc(S(=O)(=O)NC(CC(=O)N2CCC3(CC2)OCCO3)C(C)C)cc1", "note": "(stereo not given)", "Potency": "inconclusive [inhibitor, full curve]"},
      {"compound": "Cc1cc(Nc2cc(F)ccc2C)nc(-n2nc(C)cc2C)n1", "activity change, negative = inhibition": "inactive: -5.81%"},
      {"compound": "COCCN1C=C(C(=O)OC)C(c2ccccc2Cl)C(C(=O)OC)=C1", "Potency": "inconclusive [inhibitor, full curve, poor fit]"},
      {"compound": "Cc1ccc(NC(=O)c2sc3nc[nH]c(=O)c3c2C)c(C)c1", "activity change, negative = inhibition": "inactive: -1.93%"},
      {"compound": "CC(=O)Nc1sc(-c2ccccc2)nc1-c1ccccc1", "Potency": "inconclusive [inhibitor, single point]"},
      {"compound": "CCOC(=O)C1=C(COC(=O)CNC(=O)c2cccc(C)c2)NC(=O)NC1C", "note": "(stereo not given)", "Potency": "inconclusive [inhibitor, partial curve, poor fit]"},
      {"compound": "CC1=C[C@@H]2c3cccc4[nH]cc(c34)C[C@H]2N(C)C1", "Potency": "inconclusive [inhibitor, single point]"},
      {"compound": "COc1ccc(-n2c(SC3CCOC3=O)nc3ccccc32)cc1", "note": "(stereo not given)", "Potency": "inconclusive [inhibitor, partial curve, poor fit]"},
      {"compound": "CN(Cc1ccccc1)c1ncnc2c1cnn2-c1ccccc1", "activity change, negative = inhibition": "inactive: 2.72%"},
      {"compound": "O=C(NN1C(=O)c2ccccc2NC1c1ccco1)c1ccc(Br)cc1", "note": "(stereo not given)", "Potency": "inconclusive [inhibitor, single point]"},
      {"compound": "Cc1ccccc1-c1nc(CN2CCC(C(=O)N3CCC(C(N)=O)CC3)CC2)c(C)o1", "Potency": "inconclusive [inhibitor, full curve, poor fit]"},
      {"compound": "Cc1nn(-c2ccccc2)c(C)c1/C=N/NC(=O)c1cccs1", "Potency": "inconclusive [inhibitor, full curve, poor fit]"},
      {"compound": "CC(=O)C1=C(C)NC(SCC(=O)c2ccc(F)cc2)=C(C#N)C1CC(C)C", "note": "(stereo not given)", "Potency": "inconclusive [inhibitor, single point]"},
      {"compound": "CCCN1CCN(CCCNC(=O)Cn2nc(-c3ccc(Cl)cc3)ccc2=O)CC1", "Potency": "inconclusive [inhibitor, full curve]"},
      {"compound": "Cc1cc(NC(=O)c2ccc(NC(=O)CCS(=O)(=O)c3cccs3)cc2)ccc1Br", "activity change, negative = inhibition": "inactive: 11.7%"},
      {"compound": "CC(C)(C)[C@@H]1C=C(C(=O)N2CCN(Cc3ccc4c(c3)OCO4)CC2)O[C@H](OCc2ccc(CO)cc2)C1", "activity change, negative = inhibition": "inactive: 6.26%"},
      {"compound": "O=C(NCc1ccco1)C1CCN(C(=O)c2cc3sccc3n2Cc2ccc(F)cc2)CC1", "activity change, negative = inhibition": "inactive: 2.99%"},
      {"compound": "COc1cc2ccccc2cc1C(=O)N(CCN(C)C)c1nc2c(F)cc(F)cc2s1", "Potency": "inconclusive [inhibitor, full curve]"},
      {"compound": "COc1ccc(OC)c(N(CC(=O)N2CCCC2)S(C)(=O)=O)c1", "Potency": "inconclusive [inhibitor, full curve, poor fit]"},
      {"compound": "C=C(C)c1cccc(C(C)(C)NC(=O)N2CCN(C/C=C/c3ccccc3)CC2)c1", "Potency": "inconclusive [inhibitor, full curve]"},
      {"compound": "O=C(NCc1ccncc1)c1ccc(Br)o1", "Potency": "inconclusive [inhibitor, full curve, poor fit]"},
      {"compound": "Cc1cc(NC(=O)Nc2cc(F)ccc2F)no1", "activity change, negative = inhibition": "inactive: -8.26%"},
      {"compound": "Cc1ccc(NC(=O)C2CCCN2S(=O)(=O)c2ccc3c(c2)n(C)c(=O)c(=O)n3C)cc1C", "note": "(stereo not given)", "Potency": "inconclusive [inhibitor, partial curve, poor fit]"},
      {"compound": "CC1CCCCN1S(=O)(=O)c1ccc(S(=O)(=O)NCCc2ccncc2)cc1", "note": "(stereo not given)", "Potency": "inconclusive [inhibitor, full curve, poor fit]"},
      {"compound": "CCCN(CCC)S(=O)(=O)c1ccc(C(=O)Nc2cc3oc4ccccc4c3cc2OC)cc1", "Potency": "inconclusive [inhibitor, full curve]"},
      {"compound": "Cc1cc(=O)oc(C)c1C(=O)N[C@@H]1CCCCNC1=O", "Potency": "inconclusive [inhibitor, partial curve, poor fit]"},
      {"compound": "CCN1CCCC1CNC(=O)CS(=O)(=O)Cc1nc(-c2ccccc2C)oc1C", "note": "(stereo not given)", "Potency": "inconclusive [inhibitor, partial curve]"},
      {"compound": "O=C(O)C1C2C=CC(O2)C1C(=O)Nc1cccc(C(F)(F)F)c1", "note": "(stereo not given)", "Potency": "inconclusive [inhibitor, full curve, poor fit]"},
      {"compound": "Nc1nc(Cl)nc2c1ncn2[C@@H]1O[C@H](CO)[C@@H](O)[C@H]1O", "Potency": "inconclusive [inhibitor, single point]"},
      {"compound": "CCC(C)NC(=O)c1cnc2n(c1=O)CCS2", "note": "(stereo not given)", "Potency": "inconclusive [inhibitor, full curve, poor fit]"},
      {"compound": "O=C(COC(=O)c1ccc2c(c1)C(=O)N(Cc1ccncc1)C2=O)Nc1ccccc1[N+](=O)[O-]", "Potency": "inconclusive [inhibitor, partial curve]"},
      {"compound": "CCN(CC)S(=O)(=O)c1ccc(-c2nnc(SCC(=O)Nc3nnc(C)s3)n2CC)cc1", "Potency": "inconclusive [inhibitor, partial curve]"},
      {"compound": "O=[N+]([O-])c1cc(S(=O)(=O)N2CCOCC2)ccc1OCc1ccccc1C(F)(F)F", "Potency": "inconclusive [inhibitor, partial curve, poor fit]"},
      {"compound": "COC(/C=C/Nc1ccc(OC)cc1)=C(C#N)C#N", "Potency": "inconclusive [inhibitor, single point]"},
      {"compound": "CCOC(=O)c1c(S(=O)(=O)N2CCC(C(=O)N3CCN(c4ccc(F)cc4)CC3)CC2)c(C)n(C)c1C", "activity change, negative = inhibition": "inactive: -4.73%"},
      {"compound": "Cn1ncc2c(NCc3ccc(F)cc3)ncnc21", "activity change, negative = inhibition": "inactive: 5.66%"},
      {"compound": "COc1ccc(N(CC(=O)NC2CCCCC2)C(=O)CNC(=O)c2cccs2)cc1OC", "Potency": "inconclusive [inhibitor, full curve, poor fit]"},
      {"compound": "COc1ccc(-c2ccc(=O)n(CC(=O)Nc3ccc(OC)c(OC)c3)n2)cc1", "activity change, negative = inhibition": "inactive: 8.87%"},
      {"compound": "Cc1ccc(CN2CC(=O)N3[C@H]4c5cc(Cl)ccc5OC[C@@H]4[C@H](c4ccccc4)[C@]3(C)C2=O)cc1", "activity change, negative = inhibition": "inactive: -2.8%"},
      {"compound": "COC(=O)[C@H](Cc1ccccc1)NC(=O)[C@@H]1C[C@H]1[C@@H](NC(=O)OCc1ccccc1)c1ccccc1", "Potency": "inconclusive [inhibitor, partial curve, poor fit]"},
      {"compound": "Cn1cc(S(=O)(=O)N2CCOCC2)cc1C(=O)Nc1cccc(C#N)c1", "Potency": "inconclusive [inhibitor, full curve, poor fit]"},
      {"compound": "O=c1c(O[C@@H]2O[C@H](CO)[C@H](O)[C@H](O)[C@H]2O)c(-c2ccc(O)c(O)c2)oc2cc(O)cc(O)c12", "activity change, negative = inhibition": "inactive: 7.75%"},
      {"compound": "Cc1ccc(C(=O)c2oc3ccccc3c2NC(=O)Cc2ccccc2)cc1", "Potency": "inconclusive [inhibitor, single point]"},
      {"compound": "Cc1ccc(NC(=O)C2CCCNC2=O)nc1", "note": "(stereo not given)", "activity change, negative = inhibition": "inactive: -0.57%"},
      {"compound": "CCn1ccc(C(=O)Nc2sc3c(c2C(=O)OC)CCC3)n1", "activity change, negative = inhibition": "inactive: -9.65%"},
      {"compound": "Cc1ccc(C)c(NC(=O)C(=O)NCC2CCCN2S(=O)(=O)c2cccs2)c1", "note": "(stereo not given)", "Potency": "inconclusive [inhibitor, partial curve, poor fit]"},
      {"compound": "CCOC(=O)N1CCC(NC(=O)CS(=O)Cc2nc(-c3ccc(OC)c(OC)c3)oc2C)CC1", "note": "(stereo not given)", "Potency": "inconclusive [inhibitor, partial curve, poor fit]"},
      {"compound": "CN(C)S(=O)(=O)N1CCc2ccc(NC(=O)c3ccc(C(F)(F)F)cc3)cc2C1", "Potency": "inconclusive [inhibitor, full curve]"},
      {"compound": "COc1ccc(CN2C(=NC(=O)CCc3ccccc3)SC3CS(=O)(=O)CC32)cc1", "note": "(stereo not given)", "activity change, negative = inhibition": "inactive: -7.71%"},
      {"compound": "C/C(Cl)=C/Cn1c(N2CCCC2)nc2c1c(=O)[nH]c(=O)n2C", "Potency": "inconclusive [inhibitor, single point]"},
      {"compound": "COc1ccccc1NC(=S)N/N=C/c1ccc(O)cc1", "Potency": "inconclusive [inhibitor, single point]"},
      {"compound": "Cc1[nH]c2c(Cl)cccc2c1CCN", "Potency": "inconclusive [inhibitor, full curve, poor fit]"},
      {"compound": "CCOC(=O)c1ccc(NS(=O)(=O)c2ccc3c(c2)oc(=O)n3C)cc1", "Potency": "inconclusive [inhibitor, full curve, poor fit]"},
      {"compound": "O=C(O)Cc1cn(Cc2cccc(Cl)c2)c2ccccc12", "Potency": "inconclusive [inhibitor, full curve]"}
    ]}
  ]
}
